Results: the supplement of paper PMC12355420
Where a name gives a salt, the structure may show the parent alone. The list shows a part of the results. Cut-off read from the data, not from the text of the source: active = 0.5 or less and inactive = the rest. Repeats are few or missing, and single values can be far off.

Key:
Conditions in all cases: 50 µM; 24 h
[1] = tested on: HeLa VPS33A reporter cells; assay: relative cell viability (CellMask signal) vs DMSO (fraction of DMSO); higher = less cytotoxic;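 note: primary screen of an FDA-approved drug library in HeLa reporter cells in 96-well format, CellMask signal normalized to DMSO-treated wells set as 1, under 0.5 deemed highly cytotoxic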
[2] = tested on: HeLa VPS33A R498W KI + HA-SDC1-FLAG; assay: relative GAG core protein HA-SDC1 amount per cell number vs DMSO (fraction of DMSO); higher = more SDC1 (GAG core protein);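 note: HA-SDC1 level read out by In-Cell Western staining with an anti-HA antibody against the N-terminal tag, screening FDA-approved library drugs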
[3] = tested on: HeLa VPS33A KO + NLuc-VPS33A R498W; assay: relative mutant VPS33A R498W amount (NanoLuc luminescence) vs DMSO (fraction of DMSO); HeLa model of a glycosaminoglycan (GAG) storage disease; KI is knock-in and KO knock-out; SDC1 is syndecan 1; higher = higher mutant VPS33A level;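 note: screen of an FDA-approved drug library, NanoLuc luminescence read after lysing the treated cells, taken as a measure of mutant VPS33A protein stability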

Compound | relative cell viability [1] | relative GAG core protein HA-SDC1 amount per cell number [2] | relative mutant VPS33A R498W amount [3]
CCN(CC)CCOCCOC(=O)C(CC)(CC)c1ccccc1 [Oxeladin Citrate] | 1 | inactive: 1.24 | 0.742
NC(=O)C[C@H](N)C(=O)O [L-Asparagine] | 1 | inactive: 0.95 | 1.14
CS(=O)(=O)n1cc2c(n1)CN([C@H]1CO[C@H](c3cc(F)ccc3F)[C@@H](N)C1)C2 | 1.04 | inactive: 1.07 | 0.977
C[C@H]1c2cccc(O)c2C(O)=C2C(=O)[C@]3(O)C(O)=C(C(N)=O)C(=O)[C@@H](N(C)C)[C@@H]3[C@@H](O)[C@@H]21 [Doxycycline hyclate] | 1.08 | inactive: 0.52 | 0.358
CCc1cccc2c3c([nH]c12)C(CC)(CC(=O)O)OCC3 (stereo not given) [Etodolac] | 1.21 | inactive: 0.787 | 1.17
CCCN1CCCC[C@H]1C(=O)Nc1c(C)cccc1C [Ropivacaine hydrochloride monohydrate] | 1.02 | inactive: 0.976 | 1.11
Nc1ccc(S(N)(=O)=O)cc1 [Sulfanilamide] | 1.04 | inactive: 0.834 | 1.12
CNC(=O)c1ccc(N2C(=S)N(c3ccc(C#N)c(C(F)(F)F)c3)C(=O)C2(C)C)cc1F [MDV3100 (Enzalutamide)] | 1.2 | inactive: 0.973 | 0.714
CNC(=O)c1cnn(-c2nc(N)c3ncn([C@@H]4O[C@H](CO)[C@@H](O)[C@H]4O)c3n2)c1 [Regadenoson] | 1.13 | inactive: 0.909 | 1.08
CNCCc1ccccn1 [Betahistine 2HCl] | 1.2 | inactive: 1.31 | 1.59
